# Data taken from PMC4336329 (PLoS ONE, 2015).
# Screen size: about 310,000 compounds; about 2,200 (0.71%) showed an effect of 50% or more. Effects have a minus sign here. The list shows a part of the results.
# Molecular target: human ether-à-go-go-related gene (hERG) potassium channel (human, UniProt Q12809)
# Assay: primary screen, population patch clamp on CHO cells stably expressing hERG
# Chain of human ether-à-go-go-related gene (hERG) potassium channel (Q12809 whole entry, looked up): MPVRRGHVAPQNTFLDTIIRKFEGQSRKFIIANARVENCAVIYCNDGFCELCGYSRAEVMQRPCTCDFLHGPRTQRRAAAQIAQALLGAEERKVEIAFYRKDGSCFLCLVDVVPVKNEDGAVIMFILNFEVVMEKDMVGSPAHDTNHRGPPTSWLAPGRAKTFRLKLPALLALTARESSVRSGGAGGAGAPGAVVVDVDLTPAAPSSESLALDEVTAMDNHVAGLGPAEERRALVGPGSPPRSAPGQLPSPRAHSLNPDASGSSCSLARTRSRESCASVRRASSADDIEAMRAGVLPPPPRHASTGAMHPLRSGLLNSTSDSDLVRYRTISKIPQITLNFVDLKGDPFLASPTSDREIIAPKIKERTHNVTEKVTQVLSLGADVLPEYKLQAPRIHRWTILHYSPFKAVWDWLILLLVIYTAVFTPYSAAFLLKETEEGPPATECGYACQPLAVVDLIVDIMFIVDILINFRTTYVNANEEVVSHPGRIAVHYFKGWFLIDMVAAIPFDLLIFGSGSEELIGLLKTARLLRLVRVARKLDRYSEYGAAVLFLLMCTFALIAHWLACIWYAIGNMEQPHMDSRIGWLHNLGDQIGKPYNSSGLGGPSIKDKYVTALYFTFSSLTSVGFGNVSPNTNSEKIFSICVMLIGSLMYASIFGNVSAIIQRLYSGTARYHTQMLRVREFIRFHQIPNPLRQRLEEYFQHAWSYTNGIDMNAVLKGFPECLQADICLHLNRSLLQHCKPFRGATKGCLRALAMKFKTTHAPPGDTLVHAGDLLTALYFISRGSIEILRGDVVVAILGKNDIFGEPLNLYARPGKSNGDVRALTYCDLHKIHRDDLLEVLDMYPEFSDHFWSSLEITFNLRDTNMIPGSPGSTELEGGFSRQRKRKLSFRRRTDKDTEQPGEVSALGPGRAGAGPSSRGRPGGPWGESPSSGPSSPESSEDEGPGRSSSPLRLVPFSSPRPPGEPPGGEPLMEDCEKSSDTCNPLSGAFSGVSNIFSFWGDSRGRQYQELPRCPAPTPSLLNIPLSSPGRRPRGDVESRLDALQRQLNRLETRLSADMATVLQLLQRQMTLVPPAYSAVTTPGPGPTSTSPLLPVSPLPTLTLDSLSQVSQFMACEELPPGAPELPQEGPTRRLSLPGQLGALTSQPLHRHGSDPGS
row,SMILES,"hERG current change (%, negative = inhibition) at 1uM"
1,COC(=O)c1ccccc1NC(=O)CN1CCN(Cc2ccccc2)CC1,-69.6%
2,Cc1csc(NC(=O)CSc2nnc(-c3ccco3)n2C)n1,0.983%
3,CCCCN(CCCC)CCNC(=O)CN1C(=O)COc2ccc(S(=O)(=O)N3CCOCC3)cc21,-0.559%
4,COc1ccc2c(c1)oc(=O)c1ccccc12,-13.9%
5,COc1ccc(NC(=O)c2sc3nc(C)nc(N4CCOCC4)c3c2C)c(OC)c1,5.36%
6,Cc1cc(NC(=O)COc2ccc(C)c(C)c2)no1,13.8%
7,CC1CCN(C(=O)COC(=O)c2cc(S(=O)(=O)N3CCOCC3)ccc2Cl)CC1,-5.3%
8,CCCn1c(=O)c2ccccc2n2c(SCCOc3ccc(C)cc3)nnc12,8.9%
9,CC1(C)C(=O)Nc2ccccc2N1C(=O)COC(=O)Cn1cnc2ccccc2c1=O,7.15%
10,O=C(c1cccnc1)N1C2C=CC(C2)C1(C(F)(F)F)C(F)(F)F (stereo not drawn),12.7%
11,CSc1ccccc1NC(=O)c1ccc2c(c1)CCN2S(C)(=O)=O,10.4%
12,Cl.Nc1ccc(C(=O)N/N=C2/CN3CCC2CC3)cc1,11.5%
13,COc1ccccc1N1CCN(C(=O)c2cc(=O)c3cc(C)cc(C)c3o2)CC1,-1.21%
14,CCN(CC)C(=O)c1ccc(NC(=O)c2sccc2-c2ccccc2)cc1,9.83%
15,O=C(NC1CCCCC1)C(c1cccnc1)N(C(=O)c1csnn1)c1ccc(F)cc1 (stereo not drawn),13.1%
16,O=C(NC1(O)C(=O)c2ccccc2C1=O)c1ccccc1,9.94%
17,CC(C)(CNC(=O)CC1C(=O)NCCN1Cc1cccc(F)c1)N1CCOCC1 (stereo not drawn),10.5%
18,CSCC[C@H](NC(=O)[C@@H]1Cc2ccccc2CN1)C(=O)NCC1CCC(C(=O)O)CC1.Cl (stereo partly drawn),-6.65%
19,Cc1nn(C)c(Oc2cccc(Cl)c2)c1C(=O)O,-0.157%
20,Cc1cc(Nc2ccccc2)n(CCOC(=O)COc2ccccc2)n1,11.8%
21,Cc1ccc2c(c1)NC(=O)c1cccnc1N2,-7.78%
22,CC[N+](CC)(CC)CCOc1cccc(OCC[N+](CC)(CC)CC)c1OCC[N+](CC)(CC)CC.[I-],17.6%
23,CCC(=O)Nc1cccc(NC(=S)NC(=O)c2ccc(Cl)cc2)c1,10.7%
24,Cc1c(C(=O)N2CCCC2)sc(NC(=O)c2cccs2)c1C#N,11.5%
